This is one part of the list.
B1: PhoQ; a variant is named by its letters at X, in order, P23837 (parent)
chain: MKKLLRLFFPLSLRVRFLLATAAVVLVLSLAYGMVALIGYSVSFDKTTFRLLRGESNLFYTLAKWENNKLHVELPENIDKQSPTMTLIYDENGQLLWAQRDVPWLMKMIQPDWLKSNGFHEIEADVNDTSLLLSGDHSIQQQLQEVREDDDDAEMTHSVAVNVYPATSRMPKLTIVVVDTIPVELKSSYMVWSWFIYVLSANLLLVIPLLWVAAWWSLRPIEALAKEVRELEEHNRELLNPATTRELTSLVRNLNRLLKSERERYDKYRTTLTDLTHSLKTPLXXLQXXLRSLRSEKMSVSDAEPVMLEQISRISQQIGYYLHRASMRGGTLLSRELHPVAPLLDNLTSALNKVYQRKGVNISLDISPEISFVGEQNDFVEVMGNVLDNACKYCLEFVEISARQTDEHLYIVVEDDGPGIPLSKREVIFDRGQRVDTLRPGQGVGLAVAREITEQYEGKIVAGESMLGGARMEVIFGRQHSAPKDE

Variants of: B1
Test: enrichment ratio after two sorts for PhoP signalling (ratio (wild type AVST 3.29)); higher = more functional
Details: with PhoP (E. coli)

Variant	enrichment ratio
SLWR	≤ 0.25
ATIK	10.2
VWVQ	≤ 0.25
WQKY	≤ 0.25
HWPN	≤ 0.25
HKLM	≤ 0.25
RNSK	≤ 0.25
LIPC	≤ 0.25
RLCE	≤ 0.25
FQEN	≤ 0.25
TTQI	5.82
NTGK	≤ 0.25
MSAK	≤ 0.25
YMFK	≤ 0.25
LREK	≤ 0.25
ITLT	≤ 0.25
RWLL	≤ 0.25
NSFQ	≤ 0.25
RFPF	≤ 0.25
HVIA	≤ 0.25
DKKS	≤ 0.25
QSWP	≤ 0.25
ASYC	≤ 0.25
SARR	≤ 0.25
TMTH	9.92
RWPS	≤ 0.25

Variant	enrichment ratio
HTGG	≤ 0.25
AAVY	≤ 0.25
NMQD	≤ 0.25
AEMS	31
WDNN	≤ 0.25
FTYN	≤ 0.25
ERQN	≤ 0.25
PKEH	≤ 0.25
PGQD	≤ 0.25
ADTW	≤ 0.25
HDTR	≤ 0.25
SMCH	5.44
TAHV	10.4
MVPP	≤ 0.25
AKIF	4.26
WFWY	≤ 0.25
EDVH	≤ 0.25
NFPL	≤ 0.25
YMPI	≤ 0.25
LWYH	≤ 0.25
YRPP	≤ 0.25
PFWD	3.08
PWGF	≤ 0.25
TFFH	≤ 0.25
PQQG	≤ 0.25
RDEA	≤ 0.25

Variant	enrichment ratio
NKTI	≤ 0.25
NNHW	≤ 0.25
LTYE	≤ 0.25
EPPI	≤ 0.25
DGGV	≤ 0.25
MVFL	2.81
GLPG	≤ 0.25
LMSL	≤ 0.25
CFSM	18.5
LVEI	≤ 0.25
WCCS	≤ 0.25
YPLD	≤ 0.25
HYGF	≤ 0.25
PVCF	≤ 0.25
TRKA	≤ 0.25
SIKP	≤ 0.25
ILIP	0.762
YMID	≤ 0.25
HPTN	≤ 0.25
CFLL	≤ 0.25
DQGK	≤ 0.25
EHYC	≤ 0.25
AVEN	≤ 0.25
THHV	≤ 0.25
WVPW	≤ 0.25
MKFR	≤ 0.25

Variant	enrichment ratio
LDYT	≤ 0.25
AGNP	≤ 0.25
APYA	≤ 0.25
RMHT	≤ 0.25
YYWD	≤ 0.25
TPWP	≤ 0.25
ANRS	≤ 0.25
PLCL	≤ 0.25
PTNK	≤ 0.25
VNYV	≤ 0.25
FFRD	≤ 0.25
NPMV	≤ 0.25
IDWK	≤ 0.25
PMFQ	≤ 0.25
VVGC	≤ 0.25
CICF	0.285
FEIF	≤ 0.25
SMLY	4
WGHW	≤ 0.25
TAMW	≤ 0.25
HYYR	≤ 0.25
FHPQ	≤ 0.25
RHMT	≤ 0.25
KCHE	≤ 0.25
SHFG	≤ 0.25
EFMC	≤ 0.25

Variant	enrichment ratio
VYKG	≤ 0.25
WAIF	≤ 0.25
YDNE	≤ 0.25
PPKL	≤ 0.25
PPIY	≤ 0.25
WIRN	≤ 0.25
ENQL	≤ 0.25
WRKM	≤ 0.25
AFME	≤ 0.25
FGHI	≤ 0.25
YLWY	≤ 0.25
SWQS	≤ 0.25
FVTH	≤ 0.25
MGMP	≤ 0.25
VVAF	≤ 0.25
ASMQ	29.9
QKDR	≤ 0.25
KCHI	≤ 0.25
GPSQ	≤ 0.25
DHPW	≤ 0.25
KWVF	≤ 0.25
NMIN	≤ 0.25
KYAT	≤ 0.25
RDAS	≤ 0.25
LTAH	≤ 0.25
RLEK	≤ 0.25

Variant	enrichment ratio
TCSS	15
TTDA	≤ 0.25
PWAY	≤ 0.25
LPPP	≤ 0.25
NDDT	≤ 0.25
WFRV	≤ 0.25
QYPW	≤ 0.25
PDFT	≤ 0.25
TYYC	≤ 0.25
SRQV	≤ 0.25
DTSE	≤ 0.25
GPMQ	≤ 0.25
DCER	≤ 0.25
GHGG	≤ 0.25
VSNF	≤ 0.25
QMTS	≤ 0.25
LVPM	≤ 0.25
QFVA	≤ 0.25
DAMD	≤ 0.25
EHRN	≤ 0.25
VQDQ	≤ 0.25
QLDG	≤ 0.25
DKRH	≤ 0.25
